# Out of some 390,000 compounds screened, about 2,200 (0.56%) were called active. Inconclusive results, whose numbers are uncertain, are shown with a selection of clear calls. Calls follow the shape of the dose curve; as a rule, active = well fitted inhibition curve with a large enough effect; inconclusive = small, poorly fitted or top-dose-only effect; inactive = no such curve, though single readings can be large or run the other way. A potency beside an inconclusive call is a rough fit, not a confirmed value.
# Target: Chromobox protein homolog 1 (Homo sapiens) (UniProt P83916)
# Test: HTS for Inhibitors of HP1-beta Chromodomain Interactions with Methylated Histone Tails; also: nearly all actives have a fitted effect of over 70% in size
# Conditions: AlphaScreen HP1-beta / biotin-H3K9me3 peptide binding; series mostly up to 114 µM
# In short: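 AlphaScreen: HP1-beta (50 nM) preformed 30 min with biotin-H3(1-18)K9me3 peptide (50 nM) in PBS pH 7.4, 0.01% Tween-20. Compound added for 30 min at RT, then streptavidin donor/nickel chelate acceptor beads (10 ug/mL) for 30 min.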
# Potency is read from the fitted curve at half-maximal effect; tags tell the direction and shape of the fitted curve.
# UniProt P83916, sequence (P83916 whole entry, looked up): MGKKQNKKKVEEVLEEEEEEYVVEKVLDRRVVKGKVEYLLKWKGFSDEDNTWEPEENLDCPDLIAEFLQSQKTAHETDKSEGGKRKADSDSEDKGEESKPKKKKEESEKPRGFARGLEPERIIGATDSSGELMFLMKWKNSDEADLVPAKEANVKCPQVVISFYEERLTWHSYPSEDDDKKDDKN
row,SMILES,Potency
1,COc1cc(OC)c(C2CC(=O)Nc3ccc4ccccc4c32)cc1OC (stereo not drawn),"inconclusive: 35.5 µM [inhibitor, partial curve]"
2,O=C(CCOc1ccccc1)N1CCN(c2ccc(O)cc2)CC1,"inconclusive: 79.4 µM [inhibitor, partial curve, poor fit]"
3,O=C(NC(=S)Nc1ccc(CN2CCOCC2)cc1)c1ccc2c(c1)OCCO2,"inconclusive: 70.8 µM [inhibitor, partial curve]"
4,Cc1ccc(Nc2ccccc2N)cc1,"inconclusive: 56.2 µM [inhibitor, single point]"
5,CCCS(=O)(=O)Nc1ccc(Nc2c3ccccc3nc3ccccc23)c(OC)c1,"inconclusive: 56.2 µM [inhibitor, single point]"
6,CC1=CC(=O)C(C(C)C)=C/C1=N/OS(=O)(=O)c1ccccc1,"inconclusive: 20 µM [inhibitor, full curve]"
7,Cc1cc(C)c2c(c1)c1nnc(SCCN3CCCCC3)nc1n2C,"inconclusive: 28.2 µM [inhibitor, single point]"
8,CC[C@]12c3[nH]c4cc(-c5ccco5)ccc4c3CCN1C(=O)[C@@H](CC(=O)NC/C=C(\C)CCC=C(C)C)C[C@@H]2C(=O)N1CCN(C(=O)c2ccco2)CC1,inactive
9,Cc1ccc(CN(C)C(=O)COC(=O)CSc2ccc([N+](=O)[O-])cc2)cc1,"inconclusive: 44.7 µM [inhibitor, partial curve]"
10,CCN(CC)c1ccc(N=Cc2ccc(N(CC)CC)cc2O)cc1,"inconclusive: 39.8 µM [inhibitor, partial curve, poor fit]"
11,COc1ccc2c(c1)CC/C(=C\c1ccc(C)o1)C2=O,"inconclusive: 39.8 µM [inhibitor, partial curve]"
12,Clc1ccc(-c2ccc(C=Nc3ccc(N4CCOCC4)cc3)o2)c(Cl)c1,inactive
13,CSc1nn(-c2ccc(C(=O)OCC(=O)NC(=O)NC(C)C)cc2)c(=S)s1,inactive
14,Cn1c(SCC(=O)N2CCCC2)nnc1-c1ccc2c(c1)OCO2,"inconclusive: 8.91 µM [inhibitor, partial curve]"
15,CCN(c1ccccc1)S(=O)(=O)c1ccc(OC)c(NC(=O)Cc2ccc(OC)c(OC)c2)c1,inactive
16,Cc1cc(C(=O)C(C)Cl)c(C)n1Cc1ccco1 (stereo not drawn),"inconclusive: 70.8 µM [inhibitor, partial curve]"
17,N#Cc1c(-c2ccccc2)cc(-c2ccccc2)nc1SCC(O)CS(=O)(=O)Cc1ccc(Cl)cc1 (stereo not drawn),"inconclusive: 5.62 µM [inhibitor, full curve]"
18,COc1ccc(NC(=O)CSc2ccccc2)c([N+](=O)[O-])c1,"inconclusive: 25.1 µM [inhibitor, full curve]"
19,COc1cccc(C(=O)N2CCN(Cc3ccco3)CC2)c1OC,"inconclusive: 28.2 µM [inhibitor, partial curve]"
20,O=C(Nc1nccs1)[C@@H]1CCCN1C(=O)c1cccs1,"inconclusive: 89.1 µM [inhibitor, single point]"
21,COc1ccc(C(=O)N/N=C/c2c(C)[nH]c(=O)[nH]c2=O)cc1,inactive
22,CN(C)c1ccc(Nc2ncnc3c2c(-c2ccccc2)cn3-c2cccc(Cl)c2)cc1,"inconclusive: 10 µM [inhibitor, full curve, poor fit]"
23,COc1ccc(N2C(=O)C(Cl)=C(Nc3ccccc3O)C2=O)cc1,active: 28.2 µM

row,SMILES,Potency
1,COc1cc(NC(=O)C2=C(N3CCOCC3)/C(=C\c3ccc(N(C)C)cc3)CCC2)cc(OC)c1OC,"inconclusive: 25.1 µM [inhibitor, partial curve, poor fit]"
2,COc1cccc(OC)c1C(=O)Oc1ccc2c(c1)O/C(=C\c1ccncc1)C2=O,"inconclusive: 25.1 µM [inhibitor, full curve, poor fit]"
3,CCC(C)NC(=O)C1(NC(=O)Nc2ccccc2)CCCCC1 (stereo not drawn),"inconclusive: 6.31 µM [inhibitor, full curve]"
4,CC(=O)Nc1cc(NC(C)=O)cc(C(=O)N2CCCC3CCCCC32)c1 (stereo not drawn),"inconclusive: 56.2 µM [inhibitor, partial curve, poor fit]"
5,Cc1cc(C)n(-c2nnc(C)n2/N=C/c2ccco2)n1,inactive
6,CC(NCCOCCOc1ccccc1)c1ccccc1 (stereo not drawn),inactive
7,CCN1CCN(c2oc(-c3ccc(COc4ccccc4C)o3)nc2C#N)CC1,"inconclusive: 25.1 µM [inhibitor, single point]"
8,CSc1ccc(S(=O)(=O)NCC(=O)OC(C)C(=O)NCc2ccccc2)cc1[N+](=O)[O-] (stereo not drawn),inactive
9,N#Cc1ccccc1S(=O)(=O)N1CCN(CC(O)c2ccccc2)CC1 (stereo not drawn),active: 44.7 µM
10,O=C(N/N=C/c1cc(Br)c(Br)o1)c1ccc2c(c1)OCCO2,"inconclusive: 17.8 µM [inhibitor, full curve]"
11,Cc1cccc(N2CCN(C3=C(c4ccccc4)C(=O)c4ccccc43)CC2)c1C,"inconclusive: 5.62 µM [inhibitor, full curve, poor fit]"
12,COc1ccc(CN2CCN(C(=O)c3cccc(OC)c3OC)CC2)cc1OC,"inconclusive: 56.2 µM [inhibitor, partial curve, poor fit]"
13,CCOC(=O)c1c(C)[nH]c(C)c1S(=O)(=O)NCCCc1ccco1,"inconclusive: 79.4 µM [inhibitor, partial curve, poor fit]"
14,FC(F)(F)c1cccc(N2CCN(Cc3cccnc3)CC2)c1,"inconclusive: 15.8 µM [inhibitor, full curve]"
15,COc1cc(C(=O)O)ccc1O,inactive
16,COc1ccc(CCNC(=O)Cc2c(C)c3c(cc(C)c4c(C)coc43)oc2=O)cc1,inactive
17,Clc1cccc(N2CCN(Cc3ccc(Br)o3)CC2)c1,"inconclusive: 25.1 µM [inhibitor, single point]"
18,Nc1nnnn1/N=C/c1ccc(N2CCCCC2)c([N+](=O)[O-])c1,"inconclusive: 39.8 µM [inhibitor, single point]"
19,NC1(C(=O)O)CSSC1,"inconclusive: 22.4 µM [inhibitor, partial curve, poor fit]"
20,Clc1ccccc1N1CCN(c2ncnc3c2c(-c2ccccc2)cn3-c2ccccc2)CC1,inactive
21,CSCC[C@H](NC(=O)Cc1c(C)c2cc3c4c(oc3cc2oc1=O)CCCC4)C(=O)O,inactive
22,Fc1ccc2[nH]c3c(N4CCN(Cc5ccc6c(c5)OCO6)CC4)ncnc3c2c1,"inconclusive: 20 µM [inhibitor, partial curve, poor fit]"
23,COc1cccc(C(=O)N2CCN(Cc3ccccc3[N+](=O)[O-])CC2)c1,"inconclusive: 15.8 µM [inhibitor, partial curve, poor fit]"

row,SMILES,Potency
1,O=C(O)c1cc(N2N=C(C(F)(F)F)/C(=C/C=C/c3ccco3)C2=O)ccc1Cl,active: 1.58 µM
2,Cc1cccc(N2CCN(C(=O)c3ccc4nc(-c5ccco5)c(-c5ccco5)nc4c3)CC2C)c1 (stereo not drawn),"inconclusive: 35.5 µM [inhibitor, partial curve, poor fit]"
3,O=[N+]([O-])c1cccnc1N1CCC(c2cc(-c3ccc(Cl)cc3Cl)n[nH]2)CC1,"inconclusive: 25.1 µM [inhibitor, single point]"
4,COc1ccc(C(=O)/C(C#N)=N/Nc2cccc([N+](=O)[O-])c2)cc1,"inconclusive: 35.5 µM [inhibitor, partial curve]"
5,CN(C)CCN(C(=O)c1ccccc1Cl)c1nc2c(Cl)cccc2s1,"inconclusive: 56.2 µM [inhibitor, partial curve]"
6,Cc1cc(C)c(S(=O)(=O)Nc2ccc3oc4c(c3c2)CCCC4)cc1C,inactive
7,COCCOC(=O)c1c(NC(=O)CN2c3ccccc3CC2C)sc(C(N)=O)c1C (stereo not drawn),inactive
8,CCOP(=O)(OCC)C(NC(=O)c1cc([N+](=O)[O-])cc([N+](=O)[O-])c1)C(F)(F)F (stereo not drawn),"inconclusive: 56.2 µM [inhibitor, partial curve, poor fit]"
9,CN(C)c1ccc(NC(=O)CCCc2ccccc2)cc1,"inconclusive: 44.7 µM [inhibitor, partial curve, poor fit]"
10,CCc1nn(CC(=O)Nc2ccc(C)c(F)c2)c(=O)c2cc3cc(C)ccc3n12,inactive
11,CCCN(Cc1cccs1)C(=O)Nc1cc(C)ccc1OC,inactive
12,N#C/C(=C\c1ccccc1OCc1ccc(C(=O)O)cc1)C(=O)Nc1ccc(O)cc1,"inconclusive: 35.5 µM [inhibitor, partial curve]"
13,COc1ccc(NC(=O)CN(C)C(=O)c2cc3c(s2)CCC3)cc1,active: 12.6 µM
14,CCc1ccc(NC2=CC(=O)C(=O)c3ccccc32)cc1,"inconclusive: 44.7 µM [inhibitor, partial curve]"
15,CCNc1nc(NCC)n2c(SCC(=O)Nc3ccc(CC)cc3)nnc2n1,"inconclusive: 39.8 µM [inhibitor, partial curve]"
16,O=C(Nc1nc2c(s1)CCCC2)c1ccc2ncsc2c1,inactive
17,COc1cc(NC(=O)c2c3c(nc4ccccc24)CCC3)cc(OC)c1,"inconclusive: 35.5 µM [inhibitor, single point]"
18,Cc1cccc(C(C(=O)NC2CCCC2)N(C(=O)c2csnn2)C2CCCC2)c1 (stereo not drawn),inactive
19,CCN(C(=O)COC(=O)c1ccccc1Cc1ccccc1)c1c(N)n(Cc2ccccc2)c(=O)[nH]c1=O,inactive
20,COc1ccc(Nc2ncccc2C(=O)Nc2ccccc2)cc1,"inconclusive: 6.31 µM [inhibitor, full curve, poor fit]"
21,O=C(O)c1ccc(NC(=O)c2ccccc2NC(=O)c2ccccc2Br)cc1,inactive
22,COc1cccc(-c2sc3ccccc3c2-c2ccc(OCCN(C)C)cc2)c1,"inconclusive: 39.8 µM [inhibitor, partial curve]"
